# Data from publication PMC12136788.
# Some of the results follow.
# T1: UNK ZnF1-3 (human, UniProt Q9C0B0 31-174)
# T1 sequence: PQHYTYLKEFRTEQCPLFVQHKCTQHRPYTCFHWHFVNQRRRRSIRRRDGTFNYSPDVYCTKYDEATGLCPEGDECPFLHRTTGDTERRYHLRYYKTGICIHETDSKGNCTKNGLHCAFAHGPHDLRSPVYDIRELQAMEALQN
# B1: chr12:48362563:48362564:+_ENSG00000134291_ENST00000256686|hu_hu|hu_hu_hu_mus_False|8_18 (ssRNA)
# RNA: GGGAGUUCUACAGUCCGACGAUCUCCGUCAAGCCCUUCGAUAGACCCUUGCGGGGGAAACUGUAAUCACUUUGUAUGGGGAAGGAAAAGAAACGCCAAAAACUUUCCAAAAAGCGGUUCAAAAAGCUCCCAGGCCUGGGAGGUCAACAGAGGAUUGAGCAUCA
# B2: chr4:17845017:17845018:+_ENSG00000109805_ENST00000514176|hu_mus|hu_hu_hu_mus_False|8_108 (ssRNA)
# RNA: GGGAGUUCUACAGUCCGACGAUCGCUUCCUAACUUAGUAUCUUCAUUAAGGAACUCUGCAAGGUUAAGUUUACUUUUCUGUAGCGCAGCUGUUUUGGCUCGUCUGGGUAAUCUCAUCUUCAUUUCUAUUCUGGUUCCAUGAUCCAACAGAGGAUUGAGCAUCA
# B3: 69964036_69964156_4217_ncRNA_ENSMUSG00000029208_ENSMUST00000154728|mouse|control|control (ssRNA)
# RNA: GGGAGUUCUACAGUCCGACGAUCUAUAGGCAUAAAAAAACAACAAAUGUCUAGUAAGACAUUGAGUCUAUAUCUUAAAAAGCAAGUCAUAUCAGAUCAAGCAUUUGAGCUAAAAACUGUAAUACAAGGUGAUUCCAGAAAGUUCAACAGAGGAUUGAGCAUCA
# B4: chr9:104964252:104964253:+_ENSMUSG00000032563_ENSMUST00000142424|mus_mus|FALSE|FALSE (ssRNA)
# RNA: GGGAGUUCUACAGUCCGACGAUCAUCUGUCACAUGAAAGAUUUUAUGUAUCUGUUUUGGUGGCAGUCCAAGAUCUCGGUAAAAUUCCAAUCUAGAGUCAGGUUUAUAGAAGCGUGACACGGUUUUCCCGCCCACUGUCAGGGCCAACAGAGGAUUGAGCAUCA
# B5: chr6:31700130:31700131:-_ENSG00000213719_ENST00000375779|hu_mus|motif|central (ssRNA)
# RNA: GGGAGUUCUACAGUCCGACGAUCAUCUUCGGCGCUGGUUUCAUCCACUUCUUCUGGGAGGGGGGAUGUCAGGUAAUUGUCGGGAACCUUCAGGGCUUUCAGGAGUCCCUUCUCUAGGUUGUCAUUGAGGGCUGGGUUUGAGUUCAACAGAGGAUUGAGCAUCA
# B6: chr4:17845017:17845018:+_ENSG00000109805_ENST00000514176|hu_mus|hu_hu_hu_mus_False|28_68 (ssRNA)
# RNA: GGGAGUUCUACAGUCCGACGAUCGCUCUCUUAACUUGUAUCUUCAUUAAGGAACUCUGCAAGGUUAGUUUACUUUUUCUGUAGCGCAGCUGUUUUGGCUCGUCUGGUAGUCUCAUCCUUCAUUUCUGAUGGUGGUUCAUGAUCCAACAGAGGAUUGAGCAUCA
# B7: chr8:96751671:96751672:+_ENSMUSG00000032939_ENSMUST00000079961|mus_mus|FALSE|FALSE (ssRNA)
# RNA: GGGAGUUCUACAGUCCGACGAUCUGUGCGUGUGAGGGUACGGGAACGCAGGCGCUCACCAGCUUGCUGGAUCUCCUGUAAAUUUCGUUCUACAUGUGGAAGCUCAGAGAUGCCUUCAGUCUCAGCAGCAAGCUGUUCAGCUUGCAACAGAGGAUUGAGCAUCA
# B8: chr14:23058014:23058015:-_ENSG00000129562_ENST00000250498|hu_mus|FALSE|FALSE (ssRNA)
# RNA: GGGAGUUCUACAGUCCGACGAUCAGGAGAUAGGCGUCCAGCAACUUCAGCCGCUGCGGAGUGGAGCUCAAGUACUCCUCCAGGAACCGGGAGAUGACGGACACCACAGACGCCGACAUGACGAACACGGGGACUUCGGAUACCCAACAGAGGAUUGAGCAUCA
# B9: chr19:58207738:58207739:+_ENSMUSG00000054843_ENSMUST00000077282|mus_mus|FALSE|FALSE (ssRNA)
# RNA: GGGAGUUCUACAGUCCGACGAUCUAAUUGGCCACAGAGUUAACAGUAGUGUGUGACAUUGCAUUAAUUCCAUAAUUAUCUAAAAUUCAAAAAUUUUAAAGUUUUAAGAACCUGGGGGAUUCACAGUGGAUGAGGCCUGACAGCCAACAGAGGAUUGAGCAUCA
# B10: chr17:62496344:62496345:-_ENSG00000108654_ENST00000581693|hu_hu|motif|central (ssRNA)
# RNA: GGGAGUUCUACAGUCCGACGAUCCCCAAAAUCUCUUUUAAGCAGGCUAGAGUAACCUCUGUCAUAAUUUUCCCUGUCUCGGAAGGUAUUAAAUCCACCCCUUUUGCCCGCAGAGUAUCUGUCCCGACGGUCAUCCUUCAUGCCCAACAGAGGAUUGAGCAUCA
# B11: chr7:54825262:54825263:-_ENSG00000132432_ENST00000352861|hu_hu|hu_hu_hu_mus_False|18_88 (ssRNA)
# RNA: GGGAGUUCUACAGUCCGACGAUCCUGCCGGCUGGGCUCCACAAACUUUACCUGAUCAUCCAUGUUUGUUGGAUGGCGGAUUGAGAGCGUAGAGACACGUAGCUCAGGAGAGAACCGGAUGGAGGCCAACCGGAAGCUGGCAACCAACAGAGGAUUGAGCAUCA
# B12: chr11:53076483:53076484:-_ENSMUSG00000020361_ENSMUST00000020630|mus_hu|motif|central (ssRNA)
# RNA: GGGAGUUCUACAGUCCGACGAUCUUCAAAUAAUUUUGGUCGUUCUUCAGAUUCCUGGAAACGUAUCUUAAUAGGUUGACCGGGAUUUUUUAAUUCAGCCAACUUAUCAACAUAAACUUGCUUUGGCUGGUCUUCUCCAUCCUCCAACAGAGGAUUGAGCAUCA
# B13: chr17:35975164:35975165:-_ENSMUSG00000001525_ENSMUST00000001566|mus_mus|motif|central (ssRNA)
# RNA: GGGAGUUCUACAGUCCGACGAUCGACCGGAGCCCGGGAGGCUGCAGCAGCGAGAUGCAAGCACGACCGCAGGAAGGUUCGGAGAGGCAGAAGAGGCCGGCGAGCGCAGGAGGGAAGGCGCGCAGGGCGGGGCUCGCGUUCGCGCAACAGAGGAUUGAGCAUCA
# B14: chr1:219384882:219384883:+_ENSG00000143353_ENST00000366928|hu_hu|motif|central (ssRNA)
# RNA: GGGAGUUCUACAGUCCGACGAUCGGUCACUCCUAGAGAUUUUAACAUUGAGUUUGUCUCUUCUGCCCAAGAAUGAAGAACGGACUCAUCUGCAGUACCAUGACACUGAAAUAAUUCAGGAAGUACACCAUUACUCUUCUGAAGCAACAGAGGAUUGAGCAUCA
# Biological target: T1, UNK ZnF1-3
# Test: nsRBNS (natural sequence RNA bind-n-seq); RBNS binding buffer (assumed for nsRBNS): 25 mM Tris pH 7.5, 150 mM KCl, 3 mM MgCl2, 0.01% Triton X-100, 500 ug/ml BSA, 20 U/ml SUPERase-In, 4 C; UNK is unkempt and MSI1 is Musashi-1; names of the RNAs are library labels; protein concentration not given here; high values mean tight binding
row,Binder,binding signal [enrichment R]
1,B1,1.32
2,B2,0.557
3,B3,1.94
4,B4,1.13
5,B5,0.865
6,B6,0.349
7,B7,0.997
8,B8,1.07
9,B9,1.18
10,B10,0.798
11,B11,0.625
12,B12,0.53
13,B13,1.74
14,B14,0.856
